Reference: the supplement of paper PMC4967469
By IC50 is meant the dose at which the fit gives 50% viability; a fit beyond the top or the lowest dose is shown as a bound at that dose. AUC is the area under the same curve over the 256-fold range up to the top dose, as a fraction; the more sensitive the line, the further below 1. For part of these data: The top dose, if marked as inferred, was calculated from the reported fits. For part of these data: An entry number marks a drug with two screens in the source, which often give different values.

Key:
Assay in all cases: Viability of human cancer cell lines after 72 h of drug (GDSC screen)
OSI-930 = compound: O=C(Nc1ccc(OC(F)(F)F)cc1)c1sccc1NCc1ccnc2ccccc12 [OSI-930]; conditions: top dose 10.24 µM
Protocol: (§1)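 Human cancer cell lines in 384-well plates, medium with 10% serum, drug for 72 h over a 256-fold dose range (nine 2-fold or five 4-fold steps up to the top dose). Adherent lines were fixed and stained with the nucleic acid dye Syto60, suspension lines read with resazurin; signal relative to control wells, capped at 0 and 100%. One two-parameter sigmoid per drug and line, fitted in a mixed model over all curves with the slope shared within a line.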

Elesclomol = compound: CN(NC(=O)CC(=O)NN(C)C(=S)c1ccccc1)C(=S)c1ccccc1 [Elesclomol]; conditions: top dose 0.2 µM; top dose inferred
Protocol: as §1

BX-912 = compound: O=C(Nc1cccc(Nc2ncc(Br)c(NCCc3cnc[nH]3)n2)c1)N1CCCC1 [BX-912]; conditions: top dose 10.24 µM; top dose inferred
Protocol: as §1

LAQ824 = compound: O=C(/C=C/c1ccc(CN(CCO)CCc2c[nH]c3ccccc23)cc1)NO [LAQ824]; conditions: top dose 1.024 µM; top dose inferred
Protocol: as §1

Bleomycin = compound: Cc1c(N)nc([C@H](CC(N)=O)NC[C@H](N)C(N)=O)nc1C(=O)N[C@H](C(=O)N[C@H](C)[C@@H](O)[C@H](C)C(=O)N[C@H](C(=O)NCCc1nc(-c2nc(C(=O)NCCC[S+](C)C)cs2)cs1)[C@@H](C)O)[C@@H](OC1OC(CO)C(O)C(O)C1OC1OC(CO)C(O)C(OC(N)=O)C1O)c1cnc[nH]1 [Bleomycin]
Protocol: as §1

Masitinib = compound: Cc1ccc(NC(=O)c2ccc(CN3CCN(C)CC3)cc2)cc1Nc1nc(-c2cccnc2)cs1 [Masitinib]; conditions: top dose 20 µM
Protocol: as §1

NSC-87877 = compound: O=S(=O)(O)c1ccc2cc(N=Nc3cc(S(=O)(=O)O)c4cccnc4c3O)ccc2c1 [NSC-87877]; conditions: top dose 16 µM; top dose inferred
Protocol: as §1

Tamoxifen = compound: CC/C(=C(\c1ccccc1)c1ccc(OCCN(C)C)cc1)c1ccccc1 [Tamoxifen]; conditions: top dose 5 µM
Protocol: as §1

VNLG/124 = compound: CCCC(=O)OCc1ccc(OC(=O)/C=C(C)/C=C/C=C(C)/C=C/C2=C(C)CCCC2(C)C)cc1 [VNLG/124]; conditions: top dose 5.12 µM; top dose inferred
Protocol: as §1

[1] = top dose 50 µM, screen: GDSC drug entry 1378, top dose inferred
[2] = top dose 64 µM, screen: GDSC drug entry 190

| Cell Line | AUC (OSI-930) | IC50 (OSI-930) [µM] | AUC (Elesclomol) | IC50 (Elesclomol) [µM] | AUC (BX-912) | IC50 (BX-912) [µM] | AUC (LAQ824) | IC50 (LAQ824) [µM] | AUC (Bleomycin; [1]) | IC50 (Bleomycin; [1]) [µM] | AUC (Bleomycin; [2]) | IC50 (Bleomycin; [2]) [µM] | AUC (Masitinib) | IC50 (Masitinib) [µM] | AUC (NSC-87877) | IC50 (NSC-87877) [µM] | AUC (Tamoxifen) | IC50 (Tamoxifen) [µM] | AUC (VNLG/124) | IC50 (VNLG/124) [µM] |
| --- | --- | --- | --- | --- | --- | --- | --- | --- | --- | --- | --- | --- | --- | --- | --- | --- | --- | --- | --- | --- |
| Calu-6 (lung adenocarcinoma, adherent) | 0.859 | > 10.2 | 0.934 | > 0.2 | 0.916 | > 10.2 | 0.383 | 0.0289 | 0.616 | 6.87 | 0.586 | 7.15 | 0.899 | > 20 | 0.977 | > 16 | 0.981 | > 5 | 0.984 | > 5.12 |
| MS751 (cervix, adherent) | 0.982 | > 10.2 | 0.587 | 0.0212 | 0.969 | > 10.2 | 0.567 | 0.0958 | 0.775 | 18.2 | 0.727 | 16.7 | 0.973 | > 20 | 0.986 | > 16 | 0.976 | > 5 | 0.989 | > 5.12 |
| SKN-3 (head and neck, adherent) | 0.981 | > 10.2 | 0.794 | 0.112 | 0.971 | > 10.2 | 0.542 | 0.0853 | 0.213 | 0.375 | 0.753 | 24.9 | 0.921 | > 20 | 0.983 | > 16 | 0.961 | > 5 | 0.957 | > 5.12 |
| OVMIU (ovary, adherent) | 0.918 | > 10.2 | 0.8 | 0.126 | 0.911 | > 10.2 | 0.449 | 0.045 | 0.58 | 5.45 | 0.269 | 0.733 | 0.916 | > 20 | 0.853 | > 16 | 0.978 | > 5 | 0.974 | > 5.12 |
| EFO-27 (ovary, adherent) | 0.978 | > 10.2 | 0.436 | 0.008 | 0.963 | > 10.2 | 0.306 | 0.0158 | 0.678 | 11.2 | 0.351 | 1.38 | 0.879 | > 20 | 0.976 | > 16 | 0.928 | > 5 | 0.978 | > 5.12 |
| JVM-3 (lymphoid neoplasm, suspension) | 0.952 | > 10.2 | 0.665 | 0.0364 | 0.944 | > 10.2 | 0.493 | 0.0613 | 0.432 | 2.03 | 0.964 | > 64 | 0.931 | > 20 | 0.974 | > 16 | 0.963 | > 5 | 0.985 | > 5.12 |
| UMC-11 (lung carcinoid, adherent) | 0.985 | > 10.2 | 0.973 | > 0.2 | 0.919 | > 10.2 | 0.57 | 0.0972 | 0.926 | > 50 | 0.989 | > 64 | 0.821 | 9.97 | 0.991 | > 16 | 0.99 | > 5 | 0.985 | > 5.12 |
| H4 (glioma, adherent) | 0.967 | > 10.2 | 0.419 | 0.00752 | 0.907 | > 10.2 | 0.492 | 0.0609 | 0.155 | 0.274 | 0.198 | 0.515 | 0.878 | > 20 | 0.986 | > 16 | 0.98 | > 5 | 0.964 | > 5.12 |
| D-502MG (glioma, adherent) | 0.967 | > 10.2 | 0.59 | 0.0252 | 0.901 | > 10.2 | 0.774 | 0.654 | 0.551 | 4.64 | 0.963 | > 64 | 0.967 | > 20 | 0.978 | > 16 | 0.967 | > 5 | 0.956 | > 5.12 |
| HOS (osteosarcoma, adherent) | 0.977 | > 10.2 | 0.261 | 0.00299 | 0.987 | > 10.2 | 0.457 | 0.0498 | 0.275 | 0.82 | 0.104 | 0.288 | 0.95 | > 20 | 0.99 | > 16 | 0.967 | > 5 | 0.992 | > 5.12 |
| SW1417 (large intestine, adherent) | 0.958 | > 10.2 | 0.92 | > 0.2 | 0.974 | > 10.2 | 0.509 | 0.0681 | 0.923 | > 50 | 0.9 | > 64 | 0.969 | > 20 | 0.97 | > 16 | 0.985 | > 5 | 0.986 | > 5.12 |
| NCI-H2135 (non-small cell lung carcinoma, adherent) | 0.972 | > 10.2 | 0.951 | > 0.2 | 0.922 | > 10.2 | 0.521 | 0.073 | 0.976 | > 50 | 0.46 | 3.13 | 0.932 | > 20 | 0.975 | > 16 | 0.987 | > 5 | 0.973 | > 5.12 |
| M14 (melanoma, adherent) | 0.985 | > 10.2 | 0.828 | 0.133 | 0.963 | > 10.2 | 0.733 | 0.308 | 0.642 | 7.88 | – | – | 0.903 | > 20 | 0.966 | > 16 | 0.985 | > 5 | 0.982 | > 5.12 |
